# Measurements: the supplement of paper PMC8728848
# Some of the results follow.
# B1: Siglec-9 (Homo sapiens), Q9Y336 (protein)
# chain: MLLLLLPLLWGRERAEGQTSKLLTMQSSVTVQEGLCVHVPCSFSYPSHGWIYPGPVVHGYWFREGANTDQDAPVATNNPARAVWEETRDRFHLLGDPHTKNCTLSIRDARRSDAGRYFFKMEKGSIKWNYKHHRLSVNVTALTHRPNILIPGTLESGCPQNLTCSVPWACEQGTPPMISWIGTSVSPLDPSTTRSSVLTLIPQPQDHGTSLTCQVTFPGASVTTNKTVHLNVSYPPQNLTMTVFQGDGTVSTVLGNGSSLSLPEGQSLRLVCAVDAVDSNPPARLSLSWRGLTLCPSQPSNPGVLELPWVHLRDAAEFTCRAQNPLGSQQVYLNVSLQSKATSGVTQGVVGGAGATALVFLSFCVIFVVVRSCRKKSARPAAGVGDTGIEDANAVRGSASQGPLTEPWAEDSPPDQPPPASARSSVGEGELQYASLSFQMVKPWDSRGQEATDTEYSEIKIHR
# What was measured:
# Experiment in all cases: glycan array binding signal (z-score within array); higher = stronger binding
# Details in all cases: glycan notation: IUPAC condensed, linker removed; mutation: R120K
# [1] = target: Fuc(a1-2)Gal
# Outline: (§1)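 The binding signal is a Z-score computed within each array. Data were drawn from 3228 arrays in the Consortium for Functional Glycomics database, restricted to those with a known protein sequence. Scores were averaged over arrays of the same protein sequence at different concentrations or buffers, and over linkers, and negative values can be taken as non-binding.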
# [2] = target: Fuc(a1-2)Gal(b1-3)GalNAc
# Outline: as §1
# [3] = target: Fuc(a1-2)Gal(b1-3)GalNAc(a1-3)[Fuc(a1-2)]Gal(b1-4)Glc
# Outline: as §1
# [4] = target: Fuc(a1-2)Gal(b1-3)GalNAc(a1-3)[Fuc(a1-2)]Gal(b1-4)GlcNAc
# Outline: as §1
# [5] = target: Fuc(a1-2)Gal(b1-3)GalNAc(b1-3)Gal
# Outline: as §1
# [6] = target: Fuc(a1-2)Gal(b1-3)GalNAc(b1-3)Gal(a1-4)Gal(b1-4)Glc
# Outline: as §1
# [7] = target: Fuc(a1-2)Gal(b1-3)GalNAc(b1-4)[Neu5Ac(a2-3)]Gal(b1-4)Glc
# Outline: as §1
# [8] = target: Fuc(a1-2)Gal(b1-3)GlcNAc
# Outline: as §1
# [9] = target: Fuc(a1-2)Gal(b1-3)GlcNAc(b1-2)Man(a1-3)[Fuc(a1-2)Gal(b1-3)GlcNAc(b1-2)Man(a1-6)]Man(b1-4)GlcNAc(b1-4)GlcNAc
# Outline: as §1
# [10] = target: Fuc(a1-2)Gal(b1-3)GlcNAc(b1-2)Man(a1-3)[Fuc(a1-2)Gal(b1-3)GlcNAc(b1-2)Man(a1-6)]Man(b1-4)GlcNAc(b1-4)[Fuc(a1-6)]GlcNAc
# Outline: as §1
# [11] = target: Fuc(a1-2)Gal(b1-3)GlcNAc(b1-3)Gal(b1-4)Glc
# Outline: as §1
# [12] = target: Fuc(a1-2)Gal(b1-3)GlcNAc(b1-3)GalNAc
# Outline: as §1
# [13] = target: Fuc(a1-2)Gal(b1-3)GlcNAc(b1-3)[Fuc(a1-2)Gal(b1-3)GlcNAc(b1-6)]GalNAc
# Outline: as §1
# [14] = target: Fuc(a1-2)Gal(b1-3)GlcNAc(b1-3)[Gal(b1-4)GlcNAc(b1-6)]Gal(b1-4)Glc
# Outline: as §1
# [15] = target: Fuc(a1-2)Gal(b1-3)GlcNAc(b1-3)[Neu5Ac(a2-6)Gal(b1-4)GlcNAc(b1-6)]Gal(b1-4)Glc
# Outline: as §1
# [16] = target: Fuc(a1-2)Gal(b1-3)GlcNAc6S
# Outline: as §1
# [17] = target: Fuc(a1-2)Gal(b1-3)[Fuc(a1-4)]GlcNAc
# Outline: as §1
# [18] = target: Fuc(a1-2)Gal(b1-3)[Fuc(a1-4)]GlcNAc(b1-2)Man(a1-3)[Fuc(a1-2)Gal(b1-3)[Fuc(a1-4)]GlcNAc(b1-2)Man(a1-3)]Man(b1-4)GlcNAc(b1-4)GlcNAc
# Outline: as §1
# [19] = target: Fuc(a1-2)Gal(b1-3)[Fuc(a1-4)]GlcNAc(b1-2)Man(a1-3)[Fuc(a1-2)Gal(b1-3)[Fuc(a1-4)]GlcNAc(b1-2)Man(a1-6)]Man(b1-4)GlcNAc(b1-4)[Fuc(a1-6)]GlcNAc(b1-4)[Fuc(a1-6)]GlcNAc
# Outline: as §1
# [20] = target: Fuc(a1-2)Gal(b1-3)[Fuc(a1-4)]GlcNAc(b1-3)[Fuc(a1-3)[Gal(b1-4)]GlcNAc(b1-6)]Gal(b1-4)Glc
# Outline: as §1
# [21] = target: Fuc(a1-2)Gal(b1-3)[Fuc(a1-4)]GlcNAc(b1-3)[Gal(b1-4)GlcNAc(b1-6)]Gal(b1-4)Glc
# Outline: as §1
# [22] = target: Fuc(a1-2)Gal(b1-4)Fuc(a1-3)]GlcNAc(b1-2)Man(a1-3)[Fuc(a1-2)Gal(b1-4)[Fuc(a1-3)]GlcNAc(b1-2)Man(a1-6)]Man(b1-4)GlcNAc(b1-4)GlcNAc
# Outline: as §1
# [23] = target: Fuc(a1-2)Gal(b1-4)Glc
# Outline: as §1
# [24] = target: Fuc(a1-2)Gal(b1-4)Glc6S
# Outline: as §1
# [25] = target: Fuc(a1-2)Gal(b1-4)GlcNAc
# Outline: as §1
# [26] = target: Fuc(a1-2)Gal(b1-4)GlcNAc(b1-2)Man
# Outline: as §1
# [27] = target: Fuc(a1-2)Gal(b1-4)GlcNAc(b1-2)Man(a1-3)[Fuc(a1-2)Gal(b1-4)GlcNAc(b1-2)Man(a1-6)]Man(b1-4)GlcNAc(b1-4)GlcNAc
# Outline: as §1
# [28] = target: Fuc(a1-2)Gal(b1-4)GlcNAc(b1-2)Man(a1-3)[Fuc(a1-2)Gal(b1-4)GlcNAc(b1-2)Man(a1-6)]Man(b1-4)GlcNAc(b1-4)[Fuc(a1-6)]GlcNAc
# Outline: as §1
# [29] = target: Fuc(a1-2)Gal(b1-4)GlcNAc(b1-2)[Fuc(a1-2)Gal(b1-4)GlcNAc(b1-4)]Man(a1-3)[Fuc(a1-2)Gal(b1-4)GlcNAc(b1-2)Man(a1-6)]Man(b1-4)GlcNAc(b1-4)GlcNAc
# Outline: as §1
# [30] = target: Fuc(a1-2)Gal(b1-4)GlcNAc(b1-3)Gal(b1-4)GlcNAc
# Outline: as §1
# [31] = target: Fuc(a1-2)Gal(b1-4)GlcNAc(b1-3)Gal(b1-4)GlcNAc(b1-2)Man(a1-3)[Fuc(a1-2)Gal(b1-4)GlcNAc(b1-3)Gal(b1-4)GlcNAc(b1-2)Man(a1-6)]Man(b1-4)GlcNAc(b1-4)GlcNAc
# Outline: as §1
# [32] = target: Fuc(a1-2)Gal(b1-4)GlcNAc(b1-3)Gal(b1-4)GlcNAc(b1-3)Gal(b1-4)GlcNAc
# Outline: as §1
# [33] = target: Fuc(a1-2)Gal(b1-4)GlcNAc(b1-3)GalNAc
# Outline: as §1
# [34] = target: Fuc(a1-2)Gal(b1-4)GlcNAc(b1-3)[Fuc(a1-2)Gal(b1-4)GlcNAc(b1-6)]GalNAc
# Outline: as §1
# [35] = target: Fuc(a1-2)Gal(b1-4)GlcNAc(b1-3)[Fuc(a1-3)[Gal(b1-4)]GlcNAc(b1-6)]Gal(b1-4)Glc
# Outline: as §1
# [36] = target: Fuc(a1-2)Gal(b1-4)GlcNAc(b1-6)GalNAc
# Outline: as §1
# [37] = target: Fuc(a1-2)Gal(b1-4)GlcNAc6S
# Outline: as §1
# [38] = target: Fuc(a1-2)Gal(b1-4)[Fuc(a1-3)]GlcNAc
# Outline: as §1
# [39] = target: Fuc(a1-2)Gal(b1-4)[Fuc(a1-3)]GlcNAc(b1-2)Man(a1-3)[Fuc(a1-2)Gal(b1-4)[Fuc(a1-3)]GlcNAc(b1-2)Man(a1-6)]Man(b1-4)GlcNAc(b1-4)[Fuc(a1-6)]GlcNAc
# Outline: as §1
# [40] = target: Fuc(a1-2)Gal(b1-4)[Fuc(a1-3)]GlcNAc(b1-2)[Fuc(a1-2)Gal(b1-4)[Fuc(a1-3)]GlcNAc(b1-4)]Man(a1-3)[Fuc(a1-2)Gal(b1-4)[Fuc(a1-3)]GlcNAc(b1-2)Man(a1-6)]Man(b1-4)GlcNAc(b1-4)GlcNAc
# Outline: as §1
# [41] = target: Fuc(a1-2)Gal(b1-4)[Fuc(a1-3)]GlcNAc(b1-3)Gal(b1-4)[Fuc(a1-3)]GlcNAc
# Outline: as §1
# [42] = target: Fuc(a1-2)Gal(b1-4)[Fuc(a1-3)]GlcNAc(b1-3)Gal(b1-4)[Fuc(a1-3)]GlcNAc(b1-3)Gal(b1-4)[Fuc(a1-3)]GlcNAc
# Outline: as §1
# [43] = target: Fuc(a1-2)Gal(b1-4)[Fuc(a1-3)]GlcNAc(b1-3)GalNAc
# Outline: as §1
# [44] = target: Fuc(a1-2)Gal(b1-4)[Fuc(a1-3)]GlcNAc(b1-3)[Neu5Ac(a2-6)Gal(b1-4)GlcNAc(b1-6)]Gal(b1-4)Glc
# Outline: as §1
# [45] = target: Fuc(a1-2)Gal3S(b1-4)GlcNAc
# Outline: as §1
binder,measurement,setting,value
B1,glycan array binding signal (z-score),[1],-0.389
same,glycan array binding signal (z-score),[2],-0.342
same,glycan array binding signal (z-score),[3],0.079
same,glycan array binding signal (z-score),[4],-0.367
same,glycan array binding signal (z-score),[5],1.56
same,glycan array binding signal (z-score),[6],-0.035
same,glycan array binding signal (z-score),[7],-0.088
same,glycan array binding signal (z-score),[8],-0.361
same,glycan array binding signal (z-score),[9],0.613
same,glycan array binding signal (z-score),[10],0.663
same,glycan array binding signal (z-score),[11],-0.152
same,glycan array binding signal (z-score),[12],-0.33
same,glycan array binding signal (z-score),[13],-0.127
same,glycan array binding signal (z-score),[14],0.148
same,glycan array binding signal (z-score),[15],-0.287
same,glycan array binding signal (z-score),[16],-0.166
same,glycan array binding signal (z-score),[17],-0.351
same,glycan array binding signal (z-score),[18],2.09
same,glycan array binding signal (z-score),[19],0.205
same,glycan array binding signal (z-score),[20],-0.535
same,glycan array binding signal (z-score),[21],-0.297
same,glycan array binding signal (z-score),[22],6.8
same,glycan array binding signal (z-score),[23],-0.328
same,glycan array binding signal (z-score),[24],-0.423
same,glycan array binding signal (z-score),[25],-0.357
same,glycan array binding signal (z-score),[26],0.754
same,glycan array binding signal (z-score),[27],0.474
same,glycan array binding signal (z-score),[28],0.613
same,glycan array binding signal (z-score),[29],0.008
same,glycan array binding signal (z-score),[30],-0.693
same,glycan array binding signal (z-score),[31],-0.282
same,glycan array binding signal (z-score),[32],-0.031
same,glycan array binding signal (z-score),[33],-0.193
same,glycan array binding signal (z-score),[34],-0.037
same,glycan array binding signal (z-score),[35],-0.271
same,glycan array binding signal (z-score),[36],-0.04
same,glycan array binding signal (z-score),[37],-0.375
same,glycan array binding signal (z-score),[38],-0.297
same,glycan array binding signal (z-score),[39],0.216
same,glycan array binding signal (z-score),[40],-0.051
same,glycan array binding signal (z-score),[41],-0.283
same,glycan array binding signal (z-score),[42],-0.319
same,glycan array binding signal (z-score),[43],-0.015
same,glycan array binding signal (z-score),[44],0.167
same,glycan array binding signal (z-score),[45],-0.409
